Article PMC4336329 (PLoS ONE, 2015)
The campaign covered roughly 310,000 compounds. About 2,200 (0.71%) showed an effect of 50% or more. The effect is printed as a negative number. The list shows a part of the results.

Molecular target: human ether-à-go-go-related gene (hERG) potassium channel (human, UniProt Q12809)
Assay: primary screen, population patch clamp on CHO cells stably expressing hERG

Sequence of human ether-à-go-go-related gene (hERG) potassium channel (Q12809 whole entry, looked up): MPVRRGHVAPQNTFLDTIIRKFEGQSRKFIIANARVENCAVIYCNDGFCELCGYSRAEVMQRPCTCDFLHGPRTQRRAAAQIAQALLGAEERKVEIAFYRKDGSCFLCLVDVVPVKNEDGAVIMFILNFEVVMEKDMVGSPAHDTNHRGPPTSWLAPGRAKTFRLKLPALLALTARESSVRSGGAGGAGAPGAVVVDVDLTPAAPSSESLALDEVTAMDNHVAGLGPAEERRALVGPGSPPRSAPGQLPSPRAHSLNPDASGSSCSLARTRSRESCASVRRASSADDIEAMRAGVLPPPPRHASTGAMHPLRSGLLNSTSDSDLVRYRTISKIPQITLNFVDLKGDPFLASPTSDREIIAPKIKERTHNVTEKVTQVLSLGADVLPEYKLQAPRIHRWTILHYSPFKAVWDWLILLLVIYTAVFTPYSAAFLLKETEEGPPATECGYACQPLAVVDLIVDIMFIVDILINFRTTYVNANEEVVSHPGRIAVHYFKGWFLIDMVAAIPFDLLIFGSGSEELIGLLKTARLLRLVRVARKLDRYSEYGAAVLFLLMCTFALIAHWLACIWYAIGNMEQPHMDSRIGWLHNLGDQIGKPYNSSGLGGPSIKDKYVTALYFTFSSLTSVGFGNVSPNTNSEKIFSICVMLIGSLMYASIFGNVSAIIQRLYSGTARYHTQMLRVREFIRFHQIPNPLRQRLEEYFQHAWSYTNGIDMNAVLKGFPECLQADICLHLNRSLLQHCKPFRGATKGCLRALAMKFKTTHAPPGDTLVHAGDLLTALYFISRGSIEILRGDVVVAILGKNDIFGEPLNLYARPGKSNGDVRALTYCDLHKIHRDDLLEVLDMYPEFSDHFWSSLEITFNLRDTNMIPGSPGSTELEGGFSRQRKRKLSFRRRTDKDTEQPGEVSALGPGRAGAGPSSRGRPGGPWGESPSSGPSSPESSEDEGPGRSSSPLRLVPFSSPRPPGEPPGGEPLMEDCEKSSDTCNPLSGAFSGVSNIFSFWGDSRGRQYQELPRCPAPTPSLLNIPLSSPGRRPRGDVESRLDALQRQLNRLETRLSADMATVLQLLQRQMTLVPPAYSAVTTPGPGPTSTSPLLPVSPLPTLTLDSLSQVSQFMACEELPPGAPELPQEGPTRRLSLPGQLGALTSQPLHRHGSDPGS

SMILES | hERG current change (%, negative = inhibition) at 1uM [%]
Cc1cc(=O)[nH]c(N/N=C/c2cccc(Br)c2)n1 | 7.67
CCN(CC)C(=O)N1CCc2ccccc21 | -1.23
CCCCCOC(=O)C1=C(C)NC(=O)NC1c1ccccc1 (stereo not drawn) | 10.3
CCCCc1nnc(NC(=O)CCc2ccccc2)s1 | 16.2
C=CCn1c(CNS(=O)(=O)c2ccc(Br)cc2)n[nH]c1=S | 8.31
CCOc1ccccc1NC(=O)C(C)SCc1ccccc1 (stereo not drawn) | 11.7
O=C(CNC(=O)c1ccc([N+](=O)[O-])cc1)N/N=C\c1ccc(OC(=O)c2ccccc2)cc1 | 13.6
CCOC(=O)CN1C(=O)S/C(=C/c2ccc(OCc3ccc(C(=O)O)cc3)cc2)C1=O | 13.9
COC(=O)Nc1sc2nc(C)cc(C)c2c1-n1cccc1 | -4.13
COc1cc(OC)cc(C(=O)NC(C(=O)NNC(=O)c2cc(Cl)ccc2OC)C(C)C)c1 (stereo not drawn) | 17.7
CCOC(=O)C1=C(O)/C(=C\c2cc(C)n(-c3ccc(F)cc3)c2C)N=C1C | 11.2
O=C1OCC2=C1C(c1ccc(Cl)cc1)CC(=O)N2c1ccc(F)cc1 (stereo not drawn) | -10.2
COC(=O)C(Cc1ccccc1)NC(=O)CSc1nc(N)cc(=O)[nH]1 (stereo not drawn) | 16.3
Nc1nc(NCCOCCO)nc(NCc2ccccc2)c1[N+](=O)[O-] | 13.5
COCCOc1ccc(C(F)(F)F)cc1NC(=O)c1ccccc1 | -2.95
CC(C)C(C)NC(=O)COC(=O)C1CCN(S(=O)(=O)c2ccc3c(c2)OCCO3)CC1 (stereo not drawn) | 0.23
C=CCn1c(Cc2c[nH]c3ccccc23)nnc1SCC(=O)NCc1ccccc1 | 1.79
COCCN1C(=O)N[C@@H](c2ccccc2)[C@H](C(=O)OC)[C@H]1C | 7.56
CC(C)(C)NC(=O)NC12CC3CC(CC(C3)C1)C2 | 20.6

SMILES | hERG current change (%, negative = inhibition) at 1uM [%]
CN1CCC(=NNC(=O)C(=O)Nc2ccc(F)cc2)CC1 | 15.5
Cc1cc(C)n(S(=O)(=O)c2ccc(C(C)(C)C)cc2)n1 | 7.18
Cc1ccc(NCC(=O)N/N=C/c2ccc(OC(=O)c3ccco3)cc2)cc1 | 5.32
c1csc(C2=Nn3c(nnc3-c3ccncc3)SC2)c1 | 0.765
COCCSc1nnc(NC(=O)CSc2ccccc2)s1 | 12.6
Cc1ccc(CCNC(=O)C2CCN(S(=O)(=O)c3ccc4nc5c(c(C(=O)O)c4c3)CCCC5)CC2)cc1 | 21.5
COc1cccc(OC)c1OCC(O)CN1CCN(c2ccc(F)cc2)CC1.Cl (stereo not drawn) | -34.3
Cc1cccc(Oc2ncc(-c3ccc(Cl)cc3)cn2)c1C | 11.2
COc1ccc(N2CCN(CCNS(=O)(=O)c3ccc(C)cc3)CC2)cc1 | 7.86
CC(=O)NCCc1nc2ccccc2[nH]1 | 5.63
COc1ccc(CC(=O)N(C)Cc2ccc(Cl)cc2)cc1S(=O)(=O)N1CCOCC1 | -4.04
CCCCc1cc(=O)oc2cc(C)cc(OC(C)C(=O)NCc3ccccn3)c12 (stereo not drawn) | 9.09
O=C(NCCO)C(=O)Nc1cc2c3c(c1)CCN3C(=O)CC2 | 21.2
COC(=O)c1sccc1NC(=O)CSCCc1ccncc1 | 9.96
CC1(C)CC(=O)C=C(Nc2ccc(F)c(Cl)c2)C1 | 1.12
O=C(Nc1nc2ccccc2s1)C1CCN(C(=O)c2ccco2)CC1 | 2.15
O=C(Cc1ccc(F)cc1)Nc1cccc(-c2cn3c(n2)SCC3)c1 | 2.33
COc1ccc(CNC(=O)C2(CC3CC(c4ccccc4)=NO3)CCN(C(=O)C3CCCC3)CC2)cc1 (stereo not drawn) | -67.1
CCN(C1CCCCC1)S(=O)(=O)c1ccc(C(=O)O)cc1 | 14.6

SMILES | hERG current change (%, negative = inhibition) at 1uM [%]
Cc1ccc(S(=O)(=O)NC(c2ccccc2)C(C)C(=O)n2nc(C)cc2C)cc1 (stereo not drawn) | 1.95
O=C(CCNC(=O)c1ccc([N+](=O)[O-])cc1)Nc1cccc(S(=O)(=O)N2CCCCCC2)c1 | -46.3
CC(Oc1ccc2c3c(c(=O)oc2c1)CCC3)C(=O)NCc1cccnc1 (stereo not drawn) | 11.1
COc1cc(-c2nnn(CC(=O)N3CCOCC3)n2)cc(OC)c1OC | 8.77
Cc1ccsc1/C=N/NC(=O)c1nnn(-c2nonc2N)c1CSc1ccccc1 | 12.9
Cc1cc2nnc(SC(C)C#N)n2c2ccccc12 (stereo not drawn) | 6.69
Cc1cc(NC(=O)Nc2ccc(Cl)cc2)n(-c2ccccc2)n1 | 9.23
N#Cc1c(NC(=O)c2ccccc2)sc2c1CCCCC2 | 12.1
COc1ccc(C2CC(=O)C=C(NC3CCCC3)C2)cc1 (stereo not drawn) | 7.72
CN(CC(=O)Nc1ccccc1Br)Cc1nc2ccccc2c(=O)[nH]1 | -9.06
CC(C)OC(=O)CC(=O)CSc1nc2c(c(-c3cccs3)c1C#N)CCC2 | 9.64
COC(=O)c1ccc(CN2C(=O)NC(Cc3c[nH]c4ccccc34)C2=O)cc1 (stereo not drawn) | 10.9
COc1ccc(NC(=O)CCNS(=O)(=O)c2cccc3nonc23)cc1Cl | 26.5
COC(=O)CCC(=O)Nc1ccc(C)cc1OC(=O)CCC(=O)OC | 11.4
CCNc1nc(Oc2ccccc2)nc(OC(C)C(=O)OCC)n1 (stereo not drawn) | -1.68
Cc1ccc(S(=O)(=O)n2nc(OC(=O)c3cccc(F)c3)cc2N)cc1 | 15.5
CC1(C)CC(=O)c2cc(OCC(=O)NCC3CCCO3)ccc2O1 (stereo not drawn) | 14
COc1cc2nc(/C=C/c3cc(OC)c(OC)c(OC)c3)sc2cc1SC | 9.21
COc1cccc(C(=O)N(Cc2ccco2)Cc2cc3cccc(C)c3[nH]c2=O)c1 | -6.66
